The whole screen tested about 2,000 compounds, of which about 45 (2%) were called active.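 Rule for the calls: active = inhibition above the mean of all tested compounds plus 3 SD (cut at about 49% in these data); inactive = the rest.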 Some of the results follow.

The target of the test is Perilipin-5 (Homo sapiens) + 1-acylglycerol-3-phosphate O-acyltransferase ABHD5 (Homo sapiens) (UniProt Q00G26+Q8WTS1). The test can be described thus: blockers of ABHD5 binding to perilipin-5 – cell lysate, split luciferase complementation, luminescence, NIH validation set, pilot screen (AID 493035).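 Note: 0% = DMSO only wells while the 100% control is not stated.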 To be noted: split G. princeps luciferase complementation, lysates, 4 h; at 7.9 µM, hits give high values.
Chain of UniProt Q00G26 (Q00G26 whole entry, looked up): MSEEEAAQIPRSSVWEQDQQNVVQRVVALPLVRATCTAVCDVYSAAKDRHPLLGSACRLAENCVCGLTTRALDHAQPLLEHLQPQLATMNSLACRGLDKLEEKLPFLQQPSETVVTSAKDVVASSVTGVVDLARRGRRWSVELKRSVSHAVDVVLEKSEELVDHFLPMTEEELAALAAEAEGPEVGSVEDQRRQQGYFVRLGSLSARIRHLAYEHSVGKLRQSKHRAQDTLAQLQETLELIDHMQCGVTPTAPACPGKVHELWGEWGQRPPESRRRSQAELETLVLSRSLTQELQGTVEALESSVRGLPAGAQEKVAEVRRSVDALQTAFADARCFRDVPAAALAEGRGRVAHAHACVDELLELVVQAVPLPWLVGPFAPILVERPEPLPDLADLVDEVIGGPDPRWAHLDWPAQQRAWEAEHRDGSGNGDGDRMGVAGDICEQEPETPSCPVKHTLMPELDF
Chain of UniProt Q00G26 (Q8WTS1 whole entry, looked up): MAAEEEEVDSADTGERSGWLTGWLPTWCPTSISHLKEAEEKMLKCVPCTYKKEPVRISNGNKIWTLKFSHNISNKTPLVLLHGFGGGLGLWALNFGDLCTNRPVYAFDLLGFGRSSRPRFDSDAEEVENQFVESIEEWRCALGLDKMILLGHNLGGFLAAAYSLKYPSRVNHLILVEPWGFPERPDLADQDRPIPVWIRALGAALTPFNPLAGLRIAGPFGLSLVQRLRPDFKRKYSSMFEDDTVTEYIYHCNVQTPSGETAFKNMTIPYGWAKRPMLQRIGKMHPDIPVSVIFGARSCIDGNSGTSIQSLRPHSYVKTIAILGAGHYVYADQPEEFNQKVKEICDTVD
As usually defined, the inhibition is the drop in the measured response relative to a control, in per cent. As to `O=C(O)C1[C@H]2C(=O)N(C3CCCC3)C[C@]23C=C[C@H]1O3` (some centres not stated), the inhibition is inactive: -13.3%. Consider `CC(=O)N1CC23C=CC(CC2CC12CCCCCC2)O3` (configuration not stated), for which the inhibition is inactive: -4.92%. For `CCN1CCN(C(=S)c2ccc(OC)cc2)CC1`, the inhibition is inactive: 14.8%.

For the compound `O=C1Cc2ccccc2C(c2ccccc2)N1` (configuration not stated), the inhibition was inactive: 6.97%. For the compound `O=C(/C=C/c1ccccc1)c1ccccc1`, the inhibition is active: 69.7%. As for `Cn1cc(CN2CCN(CCO)CC2)c(-c2ccc(Oc3ccccc3)cc2)n1`, the inhibition was inactive: -0.18%.

As for `Cc1nc(NC(CC(C)C)C(=O)O)c2nc(C)oc2n1` (configuration not stated), the inhibition is inactive: -9.78%.

Regarding `CCc1cc2c(=O)c(-c3nc(C)cs3)coc2cc1OC(C)C(=O)NCCO` (configuration not stated), the inhibition was inactive: -5.89%. Take `O=C(O)c1ccc(C(=O)C(=O)c2ccccc2)cc1`: the inhibition was inactive: -3.75%.

Consider `COc1ccc(CCN2CCC(Nc3nc4ccccc4n3Cc3ccc(F)cc3)CC2)cc1`, for which the inhibition is inactive: -8.88%.

Regarding `O=C1CC[C@@H](CN(Cc2ccccc2)Cc2cn[nH]c2-c2cc3ccccc3o2)N1`, the inhibition was inactive: 5.78%. As to `O=C(COc1ccc(F)cc1)OCCN1CCOCC1`, the inhibition is inactive: -5.24%. Regarding `CCN(CC)CC#CCOC(=O)C(O)(c1ccccc1)C1CCCCC1` (configuration not stated), the inhibition was inactive: -9.21%.

Regarding `Cc1ncc([N+](=O)[O-])n1CCO`, the inhibition was inactive: -2.22%.

Turning to `O=C(N/N=C/c1ccc([N+](=O)[O-])o1)c1ccc(O)cc1`, the inhibition was inactive: 3.38%. For the compound `Cn1nc(-c2ccc(Cl)cc2)nc2c(=O)n(C)c(=O)nc1-2`, the inhibition is inactive: 42.7%.

`COc1ccccc1/C=C/CN1CCN(Cc2ccc(F)cc2)C(CCO)C1` (configuration not stated): the inhibition is inactive: -4.81%. On to `COc1ccc2c3c([nH]c2c1)C1(NCC3)C(=O)Nc2ccccc21` (configuration not stated), for which the inhibition is inactive: -4.51%. Consider `NC(=O)c1ncn([C@@H]2O[C@H](CO)[C@@H](O)[C@H]2O)c1O`, for which the inhibition is inactive: 8.18%. Take `COc1ccccc1-c1ccc(/C=C2/C=C(CC(C)C)OC2=O)o1`: the inhibition was inactive: 7.79%. With `Cc1ccc2c(c1)c(=O)c1c3n2CCN(C(=O)CCl)C3CC1` (configuration not stated), the inhibition is inactive: 30.9%. On to `CCc1cc(C(N)=S)ccn1`, for which the inhibition is inactive: -7.04%.

Consider `COc1cc(C(=O)OCCCN(C)C)cc(OC)c1OC`, for which the inhibition is inactive: -0.24%.

As to `O=C(OCC1CCCN2CCCCC12)c1ccc2c(c1)OCO2` (configuration not stated), the inhibition is inactive: 2.46%.

Regarding `CC1(C)C(=O)OC(/C=C\c2ccccc2)C(C)(C)C1=O` (configuration not stated), the inhibition is inactive: -2.46%. For the compound `CC[C@]1(O)CC2CN(CCc3c([nH]c4ccccc34)[C@@](C(=O)OC)(c3cc4c(cc3OC)N(C=O)[C@H]3[C@@](O)(C(=O)OC)[C@H](OC(C)=O)[C@]5(CC)C=CCN6CC[C@]43[C@@H]65)C2)C1` (some centres not stated), the inhibition is inactive: 4.36%. Turning to `CNCCC=C1c2ccccc2CCc2ccccc21`, the inhibition was inactive: -14.1%. For `O=C1C(Cc2ccccc2)NC(=S)N1c1ccccc1` (configuration not stated), the inhibition was inactive: -3.78%. In the case of `O=C(c1ccccc1F)c1cc2c(cc1[N+](=O)[O-])OCCO2`, the inhibition is inactive: 2.64%.

Consider `Cc1ccc(S(=O)(=O)NC(=O)Nc2cc(C)ccc2F)cc1`, for which the inhibition is inactive: -7.32%.

Turning to `O=C1OC(c2ccccc2)=C/C1=C/c1cccs1`, the inhibition is inactive: 3.52%. As to `Cc1ccc(/C(=C\CN2CCCC2)c2ccccn2)cc1`, the inhibition is inactive: -3.06%. In the case of `CCOc1ccc(NC2OC(C)C(O)C(O)C2O)c([N+](=O)[O-])c1` (configuration not stated), the inhibition is inactive: -5.81%.

Take `CC1(C)CC(O)(CNCc2ccc3c(c2)OCO3)CCO1` (configuration not stated): the inhibition was inactive: -10.1%. With `O=C(O)CCCN1C(=O)NC2NC(=O)NC21` (configuration not stated), the inhibition is inactive: 1.97%.

For the compound `O=C(NCCO)c1ccc2[nH]c3ccccc3c2c1`, the inhibition is inactive: -4.84%. As to `COc1ccc(CN2CCCC(C(=O)c3ccc(Cl)cc3)C2)cc1Cn1cccn1` (configuration not stated), the inhibition was inactive: 5.67%. The figure for `COC(=O)c1[nH]c2ccc(F)cc2c1NC(=O)C1=COCCO1` is inactive: 5.04%. Then `CCOc1ccc(CC2c3cc(OCC)c(OCC)cc3CCN2C(=O)CN2CCN(C)CC2)cc1OCC` (configuration not stated), with inactive: -0.88%; and `COc1cc(C)nc(-n2nc(C)cc2OC)n1`, with inactive: -2.37%.

`CS(=O)(=O)Nc1ccc([N+](=O)[O-])cc1Oc1ccccc1`: the inhibition is inactive: 6.42%. For the compound `CC(=O)[C@@]1(O)CC[C@H]2[C@@H]3CCC4=CC(=O)CC[C@]4(C)[C@H]3[C@@H](O)C[C@@]21C`, the inhibition was inactive: 4.44%. In the case of `Cc1coc2cc3oc(=O)c(CCC(=O)O)c(C)c3cc12`, the inhibition was inactive: 3.12%. For the compound `COc1ccc2c(c1OC)C(C1c3c(cc4c(c3OC)OCO4)CCN1C)OC2=O` (configuration not stated), the inhibition was inactive: -2.55%. Then `CC(=O)Oc1cc(C(C)C)c(OCCN(C)C)cc1C`, with inactive: -10.2%. Take `CCc1cc(=O)oc2cc(OCc3nn[nH]n3)ccc12`: the inhibition is inactive: 2.44%. `CSc1ccc(/C=N/N2CCN(Cc3ccc(C)cc3C)CC2)cc1`: the inhibition is inactive: 2.58%. Then `C[C@H](NC(=O)Nc1ccccc1F)C(=O)O`, with inactive: 3.51%. The figure for `COc1ccc2cc[nH]c2c1` is inactive: 5.24%. For the compound `C[N+]12CCC(CC1)C(OC(=O)C(O)(c1ccccc1)c1ccccc1)C2` (configuration not stated), the inhibition is inactive: -9.92%.

Consider `CC(=O)N1CCn2c3c(c4cc(C)ccc42)CCCC31` (configuration not stated), for which the inhibition is inactive: 2.79%. In the case of `NC(N)=N/N=C/c1c(Cl)cccc1Cl`, the inhibition was inactive: 1.14%.

Consider `CC(C)Cn1c(=S)[nH]c2cc(C(=O)O)ccc2c1=O`, for which the inhibition is inactive: -9.09%.

Turning to `NS(=O)(=O)c1cc2c(cc1Cl)NCNS2(=O)=O`, the inhibition was inactive: -3.31%. For `O=c1[nH]c(=O)n([C@H]2C[C@H](O)[C@@H](CO)O2)cc1F`, the inhibition was inactive: -4.33%. As for `O=C(N1CCCC1)C12CC3CC(C1)CC(C(=O)N1CCCC1)(C3)C2`, the inhibition was inactive: 6.12%. `O=C(/C=C/c1c[nH]c2ccccc12)c1cccc2ccccc12`: the inhibition is inactive: 38.2%.

In the case of `CS(=O)(=O)Nc1cccc(C(=O)CC2(O)C(=O)Nc3ccc(Br)cc32)c1` (configuration not stated), the inhibition is inactive: -3.77%. Regarding `COC1=CC(=O)CC(C)C12Oc1c(Cl)c(OC)cc(OC)c1C2=O` (configuration not stated), the inhibition was inactive: -2.99%. As for `O=C(c1cc2cc(Br)ccc2o1)N1CCCC1`, the inhibition is inactive: -5.04%. As for `CC(=O)[C@H]1CC[C@H]2[C@@H]3CCC4=CC(=O)CC[C@]4(C)[C@H]3[C@H](O)C[C@]12C`, the inhibition was inactive: 7.21%. As to `Cn1cc(/C=C/C(=O)c2ccccc2)c2ccccc21`, the inhibition was inactive: 13.7%.

Source of the values: PubChem BioAssay AID493035 (The Scripps Research Institute Molecular Screening Center, 2011).
